# Results reported in patent US20240101686A1 (SIMCERE ZAIMING PHARMACEUTICAL, published 2024).
# Assays:
# [1] = molecular target: T1, monkey EGFR protein (commercial, SB, catalog number 90285-C08H) (monkey); assay: ELISA, coated monkey EGFR protein, antibody 0 nM (blank)
# T1 construct: Bought protein used to coat ELISA plates
# [2] = molecular target: T1, monkey EGFR protein (commercial, SB, …); assay: ELISA, coated monkey EGFR protein, antibody 100 nM
# [3] = molecular target: T1, monkey EGFR protein (commercial, SB, …); assay: ELISA, coated monkey EGFR protein, antibody 0.1 nM
# [4] = molecular target: T1, monkey EGFR protein (commercial, SB, …); assay: ELISA, coated monkey EGFR protein, antibody 0.0001 nM
# [5] = molecular target: T1, monkey EGFR protein (commercial, SB, …); assay: ELISA, coated monkey EGFR protein, antibody 1 nM
# [6] = molecular target: T1, monkey EGFR protein (commercial, SB, …); assay: ELISA, coated monkey EGFR protein, antibody 10 nM
# [7] = molecular target: T2, cynomolgus monkey EGFR on HEK293T-monkey EGFR cells (cynomolgus monkey, UniProt P55245 (rhesus entry)); assay: FACS, HEK293T-monkey EGFR cells
# [8] = molecular target: T1, monkey EGFR protein (commercial, SB, …); assay: ELISA, coated monkey EGFR protein, antibody 0.01 nM
# [9] = molecular target: T1, monkey EGFR protein (commercial, SB, …); assay: ELISA, coated monkey EGFR protein, antibody 0.001 nM
# [10] = molecular target: T3, human EGFR endogenously expressed on A431 cells (human, UniProt P00533)
# T3 construct: whole, on cells
# [11] = molecular target: T2, cynomolgus monkey EGFR on …; assay: FACS, HEK293T-monkey EGFR cells (specificity assay)
Binder,OD450 [1],OD450 [2],OD450 [3],OD450 [4],OD450 [5],OD450 [6],EC50 [7] [nM],Max MFI [7],OD450 [8],OD450 [9],Max_MFI [10],Max_MFI [11]
"S008-NB148-48 VHH-Fc antibody (Fc fusion, VHH fused to human IgG1 hinge and Fc) QLQLVESGGGLVQAGGSLKLSCVASGFTFSNYAMAWYRQAPGKQRELIASCSASCIWTNYGASVKGRFTMSLDNAKKTVYLQMDSLKPEDTAVYYCRNLDANYWGQGTQVTVSS[human IgG1 Fc with changes not shown]",0.06,2.69,1.64,0.06,2.38,2.53,47.6,4750,0.28,0.08,13800,4460
"S008-NB148-5 VHH-Fc antibody (Fc fusion, VHH fused to human IgG1 hinge and Fc) QLQLVESGGGLVQAGGSLRLSCAVSISTFTTNGWDWYRQAPGKQRELVALISNDGTTTYTDSVKGRFTISRDGAKNTVYLQMNNLKPEDTAVYYCNTIPPAGSWGQGTQVTVSS[human IgG1 Fc with changes not shown]",0.06,2.56,1.92,0.06,2.32,2.51,27.6,16200,0.7,0.15,13900,9550
"S008-NB148-69 VHH-Fc antibody (Fc fusion, VHH fused to human IgG1 hinge and Fc) EVQVVESGGGLVQAGGSLRLSCAASTITISSAGVSWYRQAPGKQRELVAIITRGGSTNYADSVKGRFTISRDNAKNTHYLQMYNLKPEDTGIYYCNVVPPTYWGQGTQVTVSS[human IgG1 Fc with changes not shown]",0.07,2.58,1.93,0.06,2.24,2.43,15.9,17600,0.64,0.14,16000,10800
"S008-NB148-77 VHH-Fc antibody (Fc fusion, VHH fused to human IgG1 hinge and Fc) EVQVVESGGGLVQAGGSLRLSCVASGFDFSDSVMGWYRQAPGKQREAVAIISSVGQSNYRDSVQGRFTVSRSNTENTMYLQMDSLKPEDTAIYYCKKFGPGEYWGQGTQVTVSS[human IgG1 Fc with changes not shown]",0.04,2.22,1.75,0.04,1.99,2.11,2.18,12700,0.59,0.11,8820,10100
"S008-NB148-8 VHH-Fc antibody (Fc fusion, VHH fused to human IgG1 hinge and Fc) EVQLVESGGGLVQAGGSLRLSCVVSGSTFSSYAMGWYRQAPGKQRELVAAISSGVSANVADSLKGRFAISRDNAKNAVYLQMNSLKPEDTAVYYCNTLPRSMPYWGKGTLVTVSS[human IgG1 Fc with changes not shown]",0.06,2.54,1.81,0.06,2.16,2.39,2.18,12900,0.61,0.13,15300,8910
"S008-NB148-9 VHH-Fc antibody (Fc fusion, VHH fused to human IgG1 hinge and Fc) EVQLVESGGGLVQAGGSLRLSCAASGSTLSSYAMGWYRQAPGKQRELVAAISSGGGSTNYRDSVKGRFTISRDNAKNTVYLQMNSLKPEDTAVYYCKSTDYGSLFDSWGQGTQVTVSS[human IgG1 Fc with changes not shown]",0.06,2.67,1.42,0.06,2.19,2.5,20.1,2900,0.22,0.08,12700,4170
